This note sets out measurements from PMC6075865.

Sequences of proteins named here, by UniProt entry; tags and fusion partners are left off.
UniProt P46096: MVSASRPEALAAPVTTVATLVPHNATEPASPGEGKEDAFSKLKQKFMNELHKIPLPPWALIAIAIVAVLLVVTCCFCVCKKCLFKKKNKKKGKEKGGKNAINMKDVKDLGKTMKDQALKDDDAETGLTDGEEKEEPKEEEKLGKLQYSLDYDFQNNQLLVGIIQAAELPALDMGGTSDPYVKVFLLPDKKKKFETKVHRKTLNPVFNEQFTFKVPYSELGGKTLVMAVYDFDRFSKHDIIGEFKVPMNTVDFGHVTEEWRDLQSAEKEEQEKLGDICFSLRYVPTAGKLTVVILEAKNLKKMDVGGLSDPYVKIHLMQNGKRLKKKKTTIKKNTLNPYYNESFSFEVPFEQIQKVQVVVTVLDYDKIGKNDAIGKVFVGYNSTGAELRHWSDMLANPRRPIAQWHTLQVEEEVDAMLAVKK
UniProt P63044: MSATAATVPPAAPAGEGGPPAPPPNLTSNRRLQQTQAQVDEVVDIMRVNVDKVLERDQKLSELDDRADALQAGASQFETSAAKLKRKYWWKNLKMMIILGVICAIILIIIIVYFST
UniProt P60879: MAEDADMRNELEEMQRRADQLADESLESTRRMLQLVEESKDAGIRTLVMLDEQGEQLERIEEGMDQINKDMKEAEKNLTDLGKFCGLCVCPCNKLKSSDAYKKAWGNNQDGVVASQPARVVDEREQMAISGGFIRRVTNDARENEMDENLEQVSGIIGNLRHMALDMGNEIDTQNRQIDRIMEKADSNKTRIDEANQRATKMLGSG

No constants are given. Whether binding was seen depends on the method and setting. In cells and extracts the contact can be indirect. Some entries that bind do so weakly or less than the wild type.

One assay deals with T1, CpxII CTD peptide (amino acids 101-134) with an additional C-terminal cysteine, immobilised (mouse).
T1 sequence (peptide): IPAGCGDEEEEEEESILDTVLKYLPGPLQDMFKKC
Nature of the assay: pull-down; peptide immobilised on SulfoLink Coupling Gel (1.0 mg peptide/ml gel, 250 ul beads); Triton X-100 extract of mouse brain homogenate (0.5 mg/ml; 130 mM NaCl, 50 mM HEPES-NaOH, 1 mM EDTA, 2% Triton X-100, 1 mM PMSF, pH 7.3); supernatant and pellet by 12% SDS-PAGE and Western blot; only the target purified. (In general: In western blotting, separated proteins are transferred to a membrane and probed.)
For Synapsin 1 (from UniProt O88935 1-706), the binding entry is on record as “no binding”.
As for “Synaptotagmin I (from UniProt P46096 1-421)”, the binding result is “binds”.
Same read-out and setting: for “Synaptobrevin II (from UniProt P63044 1-116)” the value was “binds weakly”; for SNAP25 (from UniProt P60879 1-206), “binds”.

In a further assay the target is T2, scrambled variant of the CpxII CTD peptide with an additional C-terminal cysteine, immobilised.
T2 sequence (peptide): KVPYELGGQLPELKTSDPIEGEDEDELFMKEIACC
The description is as above.
As to “Synaptotagmin I (from UniProt P46096 1-421)”, the binding result was “no binding”.
“Synaptobrevin II (from UniProt P63044 1-116)”: the binding result is listed as “no binding”.
With SNAP25 (from UniProt P60879 1-206), the binding result is listed as “no binding”.
